Laboratory results as given in publication PMC12820563, “FoxP3 forms a head-to-head dimer in vivo and stabilizes its multimerization on adjacent microsatellites”.
The other results are listed elsewhere or left out.

molecular target: T1, MBP-FoxP1dN (Mus musculus, UniProt P58462 326-579); assay: PD-seq (MBP pull-down with sequencing); 20 mM Tris-HCl pH 7.5, 100 mM NaCl, 1.5 mM MgCl2, 0.4 uM protein, 0.1 uM dsDNA library, 30 min, room temperature, amylose pull-down; high values mean tight binding; details: protein: recombinant; tags: His6-MBP; chain copies: 2; dsDNA, one strand shown
T1 sequence: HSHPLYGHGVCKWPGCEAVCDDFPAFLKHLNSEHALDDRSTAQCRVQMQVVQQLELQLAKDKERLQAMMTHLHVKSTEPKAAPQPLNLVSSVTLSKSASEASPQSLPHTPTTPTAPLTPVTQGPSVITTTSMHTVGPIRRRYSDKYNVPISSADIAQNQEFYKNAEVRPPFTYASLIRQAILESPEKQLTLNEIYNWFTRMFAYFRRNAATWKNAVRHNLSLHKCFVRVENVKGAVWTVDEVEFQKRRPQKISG
Summary of the method: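 The N-terminus-lacking fragment of mouse FoxP3 or FoxP1 carried a His6-MBP tag and was expressed in E. coli. At 0.4 µM it was incubated with 0.1 µM Klenow-filled degenerate double-stranded DNA library for 30 min at room temperature in Tris pH 7.5 buffer with NaCl and MgCl2, and complexes were caught on amylose resin, washed three times, released with proteinase K, PCR-barcoded and Illumina-sequenced. Binding is reads-per-million enrichment of pull-down over input with replicates pooled.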

| Sequence | binding signal |
| --- | --- |
| GATGATTGTTCTCCCAGCTGATGAATTCAGGAGATCGAGTAAACAAATTTTCCTAATCTTTCTGTTCAAGCGCCATCTAC | 0.782 RPM ratio (pull-down/input) |
| GATGATTGTTCTCCCAGCTGATGAATTCTCGATATCGAGTAAACAAATTTTCCTAATCTTTCTGTTCAAGCGCCATCTAC | 0.927 RPM ratio (pull-down/input) |
| GATGATTGTTCTCCCAGCTGATGAATTAAAATGCTCGAGTAAACAAATTTTCCTAATCTTTCTGTTCAAGCGCCATCTAC | 1.3 RPM ratio (pull-down/input) |
| GATGATTGTTCTCCCAGCTGATGAATTCCGCCCCTCGAGTAAACAAATTTTCCTAATCTTTCTGTTCAAGCGCCATCTAC | 0.755 RPM ratio (pull-down/input) |
| GATGATTGTTCTCCCAGCTGATGAATTCAGTCGCTCGAGTAAACAAATTTTCCTAATCTTTCTGTTCAAGCGCCATCTAC | 0.815 RPM ratio (pull-down/input) |
| GATGATTGTTCTCCCAGCTGATGAATTAACTTTTTCGAGTAAACAAATTTTCCTAATCTTTCTGTTCAAGCGCCATCTAC | 0.806 RPM ratio (pull-down/input) |
| GATGATTGTTCTCCCAGCTGATGAATTACCGGTCTCGAGTAAACAAATTTTCCTAATCTTTCTGTTCAAGCGCCATCTAC | 0.832 RPM ratio (pull-down/input) |
| GATGATTGTTCTCCCAGCTGATGAATTTCGTCCATCGAGTAAACAAATTTTCCTAATCTTTCTGTTCAAGCGCCATCTAC | 0.922 RPM ratio (pull-down/input) |
| GATGATTGTTCTCCCAGCTGATGAATTTAAGCCCTCGAGTAAACAAATTTTCCTAATCTTTCTGTTCAAGCGCCATCTAC | 0.806 RPM ratio (pull-down/input) |
| GATGATTGTTCTCCCAGCTGATGAATTACTACTATCGAGTAAACAAATTTTCCTAATCTTTCTGTTCAAGCGCCATCTAC | 1.24 RPM ratio (pull-down/input) |
| GATGATTGTTCTCCCAGCTGATGAATTCTTCTGCTCGAGTAAACAAATTTTCCTAATCTTTCTGTTCAAGCGCCATCTAC | 0.822 RPM ratio (pull-down/input) |
| GATGATTGTTCTCCCAGCTGATGAATTACAAAATTCGAGTAAACAAATTTTCCTAATCTTTCTGTTCAAGCGCCATCTAC | 1.37 RPM ratio (pull-down/input) |
| GATGATTGTTCTCCCAGCTGATGAATTGTACAGGTCGAGTAAACAAATTTTCCTAATCTTTCTGTTCAAGCGCCATCTAC | 0.868 RPM ratio (pull-down/input) |
| GATGATTGTTCTCCCAGCTGATGAATTACGCTTTTCGAGTAAACAAATTTTCCTAATCTTTCTGTTCAAGCGCCATCTAC | 1.18 RPM ratio (pull-down/input) |
| GATGATTGTTCTCCCAGCTGATGAATTATCAAGTTCGAGTAAACAAATTTTCCTAATCTTTCTGTTCAAGCGCCATCTAC | 1.04 RPM ratio (pull-down/input) |
| GATGATTGTTCTCCCAGCTGATGAATTCGAGGAGTCGAGTAAACAAATTTTCCTAATCTTTCTGTTCAAGCGCCATCTAC | 0.715 RPM ratio (pull-down/input) |

| Sequence | binding signal |
| --- | --- |
| GATGATTGTTCTCCCAGCTGATGAATTTAGGCCGTCGAGTAAACAAATTTTCCTAATCTTTCTGTTCAAGCGCCATCTAC | 0.94 RPM ratio (pull-down/input) |
| GATGATTGTTCTCCCAGCTGATGAATTCGGGTGCTCGAGTAAACAAATTTTCCTAATCTTTCTGTTCAAGCGCCATCTAC | 0.765 RPM ratio (pull-down/input) |
| GATGATTGTTCTCCCAGCTGATGAATTCAGCGGCTCGAGTAAACAAATTTTCCTAATCTTTCTGTTCAAGCGCCATCTAC | 0.756 RPM ratio (pull-down/input) |
| GATGATTGTTCTCCCAGCTGATGAATTAATCGCTTCGAGTAAACAAATTTTCCTAATCTTTCTGTTCAAGCGCCATCTAC | 1.05 RPM ratio (pull-down/input) |
| GATGATTGTTCTCCCAGCTGATGAATTCATGCAATCGAGTAAACAAATTTTCCTAATCTTTCTGTTCAAGCGCCATCTAC | 1.26 RPM ratio (pull-down/input) |
| GATGATTGTTCTCCCAGCTGATGAATTGTTGCGTTCGAGTAAACAAATTTTCCTAATCTTTCTGTTCAAGCGCCATCTAC | 1.55 RPM ratio (pull-down/input) |
| GATGATTGTTCTCCCAGCTGATGAATTTAACGTGTCGAGTAAACAAATTTTCCTAATCTTTCTGTTCAAGCGCCATCTAC | 0.967 RPM ratio (pull-down/input) |
| GATGATTGTTCTCCCAGCTGATGAATTTAGTATGTCGAGTAAACAAATTTTCCTAATCTTTCTGTTCAAGCGCCATCTAC | 1.09 RPM ratio (pull-down/input) |
| GATGATTGTTCTCCCAGCTGATGAATTCATGATATCGAGTAAACAAATTTTCCTAATCTTTCTGTTCAAGCGCCATCTAC | 1.06 RPM ratio (pull-down/input) |
| GATGATTGTTCTCCCAGCTGATGAATTTTTCCTTTCGAGTAAACAAATTTTCCTAATCTTTCTGTTCAAGCGCCATCTAC | 0.883 RPM ratio (pull-down/input) |
| GATGATTGTTCTCCCAGCTGATGAATTTTCGCTCTCGAGTAAACAAATTTTCCTAATCTTTCTGTTCAAGCGCCATCTAC | 0.91 RPM ratio (pull-down/input) |
| GATGATTGTTCTCCCAGCTGATGAATTAGTGCGTTCGAGTAAACAAATTTTCCTAATCTTTCTGTTCAAGCGCCATCTAC | 1.1 RPM ratio (pull-down/input) |
| GATGATTGTTCTCCCAGCTGATGAATTTGTAGGGTCGAGTAAACAAATTTTCCTAATCTTTCTGTTCAAGCGCCATCTAC | 0.882 RPM ratio (pull-down/input) |
| GATGATTGTTCTCCCAGCTGATGAATTGTAAAGCTCGAGTAAACAAATTTTCCTAATCTTTCTGTTCAAGCGCCATCTAC | 0.873 RPM ratio (pull-down/input) |
| GATGATTGTTCTCCCAGCTGATGAATTCCGCCAGTCGAGTAAACAAATTTTCCTAATCTTTCTGTTCAAGCGCCATCTAC | 0.747 RPM ratio (pull-down/input) |
| GATGATTGTTCTCCCAGCTGATGAATTTTAGTAATCGAGTAAACAAATTTTCCTAATCTTTCTGTTCAAGCGCCATCTAC | 1.75 RPM ratio (pull-down/input) |
